Experimental data taken from the BET-seq Pho4 binding data (Le et al. 2018).
Some of the results follow. The energies were worked out here from pooled read counts, against the library average; single values are noisy.

The sequences below were run against T1, Pho4 (S. cerevisiae) (UniProt P07270) (assay: relative binding free energy (BET-seq); higher = weaker binding). Settings: reference: library average.
T1 sequence: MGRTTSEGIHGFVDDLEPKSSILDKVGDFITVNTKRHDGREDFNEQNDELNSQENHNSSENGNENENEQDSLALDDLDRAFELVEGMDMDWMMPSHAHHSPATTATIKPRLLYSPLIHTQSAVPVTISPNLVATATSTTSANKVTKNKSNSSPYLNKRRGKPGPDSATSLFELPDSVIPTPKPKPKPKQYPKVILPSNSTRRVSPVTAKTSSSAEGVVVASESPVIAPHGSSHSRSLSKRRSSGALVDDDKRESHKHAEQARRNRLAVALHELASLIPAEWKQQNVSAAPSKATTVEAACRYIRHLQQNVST

Relative binding free energy, 0.16 kcal/mol:
AGGGGCACGTGAGGAG
TATTTCACGTGCTATA
GTCGACACGTGTGGCG
TACTTCACGTGTGTAG

Relative binding free energy, -0.04 kcal/mol:
GGCAACACGTGGAGTG
TTGCACACGTGGTCGG
TCGTACACGTGGGTCG

Relative binding free energy, 0.42 kcal/mol:
CGATTCACGTGAGCGG

Relative binding free energy, -0.09 kcal/mol:
TGACGCACGTGTCGGG
TTTAGCACGTGATCGG
TGAAGCACGTGTGTAA
AGGTACACGTGGGGTC

Relative binding free energy, -0.43 kcal/mol:
CGGCGCACGTGGGTTG

Relative binding free energy, -0.19 kcal/mol:
GTATGCACGTGGCTGG

Relative binding free energy, -0.14 kcal/mol:
GGTGGCACGTGCATAT
ATCTGCACGTGGGGAT
GCAGGCACGTGGGGAT
ACGGTCACGTGGGTCG

Relative binding free energy, 0.08 kcal/mol:
AATGTCACGTGGGAAG
AATGTCACGTGTGACG
AGTTGCACGTGTGAAG
GTAGTCACGTGCGGAA

Relative binding free energy, -0.23 kcal/mol:
CGGGGCACGTGGCAGG

Relative binding free energy, 0.31 kcal/mol:
CTGTTCACGTGATGGA
GACTTCACGTGTATTT
GGTATCACGTGGCACT
TAAGGCACGTGAAATG

Relative binding free energy, 0.07 kcal/mol:
GTTGTCACGTGGTCGG
TTCTGCACGTGGAAGT
TTCGTCACGTGGTTAT

Relative binding free energy, -0.26 kcal/mol:
ATGCGCACGTGCGGTT
TCGGGCACGTGGTTAG
AGGGGCACGTGCCAGG

Relative binding free energy, -0.02 kcal/mol:
TAATACACGTGGGGGG
AAGTGCACGTGATTAG
GTTGGCACGTGGAGCT
TGTAGCACGTGATGCT
ATTGTCACGTGGGTAA
ATGGTCACGTGGGGGG

Relative binding free energy, 0.45 kcal/mol:
ATGTTCACGTGAATGC
GGGTTCACGTGTTGAA

Relative binding free energy, -0.05 kcal/mol:
GGTGTCACGTGCGGAG
TGCGCCACGTGTTTTG
GGTCGCACGTGGGATT
TAGTACACGTGTTGGA

Relative binding free energy, -0.07 kcal/mol:
AGAGCCACGTGTGGGA
AATGGCACGTGGTGGT
GAGGGCACGTGTTGTT
AGTGCCACGTGTGGGC

Relative binding free energy, -0.32 kcal/mol:
TCTAGCACGTGGGTAT

Relative binding free energy, 0.3 kcal/mol:
ATTCACACGTGAATGG
GGCCTCACGTGAGGTG

Relative binding free energy, -0.13 kcal/mol:
TGTGTCACGTGCTCTG
GTAGACACGTGGTGTT
ACTCACACGTGGGGGG
GTCCGCACGTGGGTTT

Relative binding free energy, 0.32 kcal/mol:
CGGTTCACGTGTGTAG

Relative binding free energy, 0.29 kcal/mol:
GGGTTCACGTGGGGAT
AAAAGCACGTGAGTAG
TTATTCACGTGAAGTA
TTTTTCACGTGTGGTT

Relative binding free energy, 0.5 kcal/mol:
GAGTTCACGTGAGATT

Relative binding free energy, -0.17 kcal/mol:
ATCGCCACGTGTGGGG
TGGGCCACGTGGGATA

Relative binding free energy, 0.11 kcal/mol:
TTGAACACGTGTGGCG
GGTGTCACGTGCTGTT
CTAATCACGTGTGGGT
TATGTCACGTGTCGTA
CGGGTCACGTGGTACA
GGTTACACGTGTGTGA

Relative binding free energy, 0.25 kcal/mol:
GCTGTCACGTGAGGCG
ATGTTCACGTGAGTAT

Relative binding free energy, 0.09 kcal/mol:
GCGAGCACGTGTCTGG
ATGTTCACGTGGTCTG
TGCTTCACGTGGGAGT
GATTGCACGTGATGCG
TAATACACGTGGCTGT

Relative binding free energy, 0.18 kcal/mol:
TTAGTCACGTGAGGAT
TTGTACACGTGATATT
ATAGTCACGTGATAGG
GTGTTCACGTGCGGCT

Relative binding free energy, 0.01 kcal/mol:
GGTAACACGTGGTGCG
ATAATCACGTGGATGG
GCGGACACGTGCGGGG
AGGAACACGTGGCGTT
AGTGGCACGTGAAATG
TTTAGCACGTGCTGGC

Relative binding free energy, 0.17 kcal/mol:
ATGGTCACGTGTTGGT
GAAAGCACGTGTGTAG
ATGAGCACGTGAGTGG

Relative binding free energy, 0.24 kcal/mol:
GAATTCACGTGTTATG

Relative binding free energy, -0.21 kcal/mol:
TTAAGCACGTGTGTGT
CTGGGCACGTGCGTGT

Relative binding free energy, 0.13 kcal/mol:
TTTATCACGTGGCTGT
GTTGGCACGTGACTTT
TGTTCCACGTGTGAGT
TGGTGCACGTGTAAAG
GTTATCACGTGCGCGT
GTTGTCACGTGGAATA
TGTGTCACGTGTACAA

Relative binding free energy, 0.36 kcal/mol:
TTTTTCACGTGAGTTT

Relative binding free energy, -0.18 kcal/mol:
GGCGGCACGTGGAGGA

Relative binding free energy, -0.06 kcal/mol:
TTCGTCACGTGTGTGC
GGTCGCACGTGCGGGC
CTGTGCACGTGCTTTA
AAGTGCACGTGTTATA

Relative binding free energy, -0.08 kcal/mol:
TGGACCACGTGGTATG
TAGGGCACGTGATTCG
TATGTCACGTGGGGTG
TCAGTCACGTGGGGTT
TAGGACACGTGGGCTT
ATTAACACGTGCGGGT

Relative binding free energy, 0.2 kcal/mol:
GGGTTCACGTGGTCAA
ATGGTCACGTGAAGCT
ATGATCACGTGTTAAT
CGGCACACGTGTGGTT
GTGGTCACGTGTGTAG
GTCGTCACGTGAGGGG
ATTAACACGTGAAGTG

Relative binding free energy, 0.23 kcal/mol:
TCGTTCACGTGATGTT
CTTGTCACGTGGAATT
GATTACACGTGTTGTG
GTTTGCACGTGAATGA
GTAAGCACGTGAGGGA

Relative binding free energy, 0.19 kcal/mol:
CTTGGCACGTGAATGG
CGATACACGTGTAGGT
GCTGTCACGTGTTGTT
GATATCACGTGGGTTT
ATGTGCACGTGAGTTG
GTTGTCACGTGTGAAG
AATTCCACGTGTATGG

Relative binding free energy, 0.38 kcal/mol:
TTTTACACGTGAATGA
TGTTTCACGTGAAGCG

Relative binding free energy, 0.21 kcal/mol:
GTGATCACGTGTTGCT
GTCTTCACGTGTGCGT
GGGACCACGTGAGGGG

Relative binding free energy, 0.03 kcal/mol:
AGTTGCACGTGCGGAA
CTGGGCACGTGAAGTG
TGGCGCACGTGATTAT
TTAAACACGTGTATGT
TTGTACACGTGTTGCT

Relative binding free energy, -0.1 kcal/mol:
GGGGCCACGTGGTTGG
TGGGGCACGTGGTATG
AGGTGCACGTGGTGCA
TGGGGCACGTGTGCGC

Relative binding free energy, -0.25 kcal/mol:
CCAAGCACGTGGGGGG
AGTACCACGTGGGTTT

Relative binding free energy, 0.06 kcal/mol:
GATGACACGTGGTATG
ACTGGCACGTGAGGAG
TCCGTCACGTGGTGGT

Relative binding free energy, 0.1 kcal/mol:
GTAAGCACGTGAAGGT

Relative binding free energy, 0.14 kcal/mol:
TTCTGCACGTGATAAT
GTTGTCACGTGGCGGT
TACTGCACGTGGAGGC
TATTCCACGTGTGGGT

Relative binding free energy, -0.28 kcal/mol:
TGTCCCACGTGGGGGG

Relative binding free energy, -0.15 kcal/mol:
CGGGGCACGTGTGGAT
TAGTGCACGTGGGGGT
TAGGGCACGTGGACAT
ACGTGCACGTGGCGGG

Relative binding free energy, 0.27 kcal/mol:
GGTTACACGTGTGGAG
TACATCACGTGATGGG

Relative binding free energy, -0.12 kcal/mol:
TGTACCACGTGTTAGG
ATTGACACGTGGGAAT
TTTAACACGTGGGTAG

Relative binding free energy, 0.12 kcal/mol:
AAGTTCACGTGTGTGC
TGAGACACGTGTGGTG
GGGTACACGTGGGAAC
CTATTCACGTGTGGAT
TTGCTCACGTGTTGAA
GGGATCACGTGTTGCA
TCGTCCACGTGTTGTT

Relative binding free energy, 0.37 kcal/mol:
TGGATCACGTGAAGTT
TTTTACACGTGAATAT
GCTCTCACGTGAGGGT

Relative binding free energy, 0.26 kcal/mol:
TAGGTCACGTGTGGAA
CGTATCACGTGGAAGT
TGGTTCACGTGCTTAT
GGGTGCACGTGAAAGA

Relative binding free energy, 0.22 kcal/mol:
GTGGTCACGTGTACAG
TAGGTCACGTGACAGG
GGGGCCACGTGAATGG

Relative binding free energy, 0.33 kcal/mol:
TGGATCACGTGAGGGG

Relative binding free energy, -0.2 kcal/mol:
CTTAACACGTGGGTGG
TTGACCACGTGGGTTT

Relative binding free energy, 0.15 kcal/mol:
TTGTTCACGTGTGCAG
TCGGTCACGTGTTTGT
GGTTGCACGTGGTAAA
TATGACACGTGTTGGG
GGTTACACGTGGGGAC
TTAGTCACGTGTGCTC
TTATTCACGTGGGCGG

Relative binding free energy, 0.05 kcal/mol:
GTTAACACGTGGAAGT
ATTGTCACGTGGTTAA

Relative binding free energy, 0.02 kcal/mol:
GCGGTCACGTGCGTGG
GCTATCACGTGTTTGG
TGACGCACGTGTGGGT
ATGGACACGTGTGTGT
AGATGCACGTGTGGAA

Relative binding free energy, 0 kcal/mol:
TGCGGCACGTGTAGCG
GTTCGCACGTGTGTGA
AGGGACACGTGTGCGT
AGTTGCACGTGGAAGA
ATTGGCACGTGGATAG
AGGGACACGTGTATGT
ATCATCACGTGGGGAG
GGTGCCACGTGTCTTG

Relative binding free energy, -0.01 kcal/mol:
AGTTCCACGTGTGGTA
TTCAGCACGTGTTAAG
GGATGCACGTGGACGG
GTGTGCACGTGGAGTA
CTTGTCACGTGCGGTT
AGTTGCACGTGGTTGC
GTGGCCACGTGGTGAC

Relative binding free energy, -0.22 kcal/mol:
TTAAGCACGTGGTAGT

Relative binding free energy, 0.28 kcal/mol:
ATTTACACGTGTTTTC
GGTAGCACGTGACGAG
GTGGTCACGTGGATCA

Relative binding free energy, -0.03 kcal/mol:
TGATCCACGTGCGGGT
CAATACACGTGTTGGT
ATTCTCACGTGGTTAT
CTGTGCACGTGTGAAG

Relative binding free energy, 0.04 kcal/mol:
TTAAGCACGTGTAGTT
CGGGTCACGTGTGTAC
AAAGACACGTGTGTGA
GCGGTCACGTGCGGGG
GGGGTCACGTGGACCG
GTTGGCACGTGACGCG
TGAAACACGTGTGTGG
CTTGTCACGTGTAGAG
